# In PubChem BioAssay AID1347073 (National Center for Advancing Translational Sciences (NCATS), 2019):
# Among all 45,000 compounds or so, about 200 (0.44%) were called active. Inconclusive results (about 7%) are left out. The call rests on the fitted dose curve; in most records, active means well fitted activation curve with a large enough effect; inconclusive means small, poorly fitted or top-dose-only effect; inactive means no such curve, though single readings can be large or run the other way. This is one part of the list.
# Assay: qHTS of TDP-43 Inhibitors: NCGC Sytravon Library Screen; further: 0% is about no effect; nearly all actives have a fitted effect of over 55% in size
# Details: yeast TDP-43 toxicity rescue, BacTiter-Glo growth, 24 h; series mostly up to 46.1 µM; growth rescue (activation): at the top concentration
# Method in brief: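 TDP-43-expressing yeast, pregrown in raffinose, seeded at OD600 0.02 in galactose medium with compound for 24 hr at 30 deg C. Growth read by BacTiter-Glo luminescence, so rescue of toxicity appears as activation.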
row,Compound,growth rescue (activation)
1,CC(C)c1ccccc1NC(=S)NCc1ccncc1,inactive: 7.78%
2,Cc1ccc(CSc2nnc(-c3cccc(S(=O)(=O)N4CCOCC4)c3)n2C2CCCC2)cc1,inactive: 12.1%
3,O=C(COC(=O)Cc1ccc(Cl)cc1)Nc1cc(S(=O)(=O)N2CCOCC2)ccc1N1CCCC1,inactive: 0.0332%
4,Cc1ccc(Cl)cc1N1CCN(C(=O)COc2ccc3c(c2)CCC3)CC1,inactive: 19.3%
5,CCOC(=O)c1c(OCCO)noc1N,inactive: 3.72%
6,NS(=O)(=O)c1cccc(NC(=O)CCCNC(=O)c2ccc(Cl)cc2)c1,inactive: -20.8%
7,CCCc1nc2nc(C)c(NS(=O)(=O)c3ccc([N+](=O)[O-])cc3)c(=O)n2[nH]1,inactive: -8.92%
8,C=CCOc1ccc(CNn2nnnc2N)cc1,inactive: 30.8%
9,O=C(O)COc1ccc(Br)cc1CP(=O)(c1ccccc1)c1ccccc1,inactive: 23.1%
10,CN(CC(=O)Nc1ccc(F)c(F)c1F)c1ncnc2sccc12,inactive: 16.7%
11,C/C(=N\N1C(=O)c2ccccc2NC1c1ccco1)c1ccccc1O (configuration not stated),inactive: 12.5%
12,CC(C(=O)Nc1ccc(F)c(F)c1F)N1CCCCCC1 (configuration not stated),inactive: 14.6%
13,O=C(c1cccc(NS(=O)(=O)c2ccc(F)c(F)c2)c1)N1CCN(Cc2ccccc2)CC1,inactive: 13.8%
14,COc1ccc(COCC(O)CN2CCC(C(N)=O)CC2)cc1OC (configuration not stated),inactive: 7.13%
15,COc1ccc(NC(=O)CSc2ccc3ccccc3c2)cc1S(=O)(=O)N1CCCCC1,inactive: 9.27%
16,CCN(CC)CCNC(=O)c1ccc(NC(=O)c2ccc(F)cc2F)cc1,inactive: 2.8%
17,Cn1c(Nc2ccc(Cl)cc2F)nc2cc(-c3ccccc3)sc2c1=O,inactive: 7.02%
18,CCN(CC)S(=O)(=O)c1ccc(C(=O)OCC(=O)Nc2sc3c(c2C#N)CCCCC3)cc1,inactive: 13.7%
19,O=C(O)c1ccc(N2CC3CC(C2)c2cccc(=O)n2C3)c(NC(=S)Nc2ccc(Cl)cc2Cl)c1 (configuration not stated),inactive: 1.34%
20,O=C(COC(=O)c1ccc(F)c(S(=O)(=O)N2CCOCC2)c1)NCc1ccccc1,inactive: -3.19%
21,COc1ccc(/C=N/NC(=O)C(O)(c2ccccc2)c2ccccc2)cc1OC,inactive: -20.4%
22,Cc1ccc(C(=O)N/C(=C\c2ccc(F)cc2)C(=O)NCCCn2ccnc2)cc1,inactive: -14%
23,CC(C)(C)c1ccc2c(c1)C(=O)c1ccccc1C2=O,inactive: 6.17%
24,CCOc1ccc(NC(=O)CN2CCN(CC(=O)Nc3ccc(OC)cc3OC)CC2)cc1,inactive: 4.89%
25,COc1ccc(C(=O)Nc2nc3ccccc3s2)cc1OC,inactive: 28.9%
26,COc1ccc(Br)cc1S(=O)(=O)Nc1ncccc1C,inactive: -7.65%

row,Compound,growth rescue (activation)
1,Cc1cc(C(=O)Nc2ccc(CC(=O)O)cc2)c(C)o1,inactive: -12.2%
2,O=C(CC1SC(=Nc2ccc(O)cc2)NC1=O)Nc1ccccc1 (configuration not stated),inactive: -10%
3,CCOCC(O)CNC(=O)c1ccc(OC2CCN(C(=O)c3cccnc3)CC2)cc1 (configuration not stated),inactive: 9.83%
4,COC(=O)C1=C(C)NC(=O)/C1=C\c1cc(C)n(-c2cccc(C)c2)c1C,inactive: 22.3%
5,CCn1c(=O)c(=O)[nH]c2cc(C(=O)N(C)Cc3ccc(OC)c(F)c3)ccc21,inactive: -4.99%
6,CCc1nc(N[C@H](C(=O)O)C(C)C)c2oc3ccccc3c2n1,inactive: -20.1%
7,Cc1cccc(N(C(=O)Cn2nnc(-c3ccccc3F)n2)C(C(=O)NC(C)(C)C)c2ccncc2)c1 (configuration not stated),inactive: -0.711%
8,O=C(O)CCCn1cc(NC(=O)COc2ccccc2F)cn1,inactive: 5.55%
9,C/C(=N\NC(=O)c1nnn(-c2nonc2N)c1CN(C)c1ccccc1)c1ccccc1O,inactive: 2.1%
10,O=[N+]([O-])c1ccc(S(=O)(=O)CC(CN2CCOCC2)N2CCOCC2)cc1 (configuration not stated),inactive: 7.92%
11,CC(=O)Oc1ccc(/C=C(\NC(=O)c2ccco2)C(=O)Nc2ccc(C(C)=O)cc2)cc1,inactive: -1.49%
12,O=C(Cc1cccs1)Nc1ccc(N2CCOCC2)cc1,inactive: 23.2%
13,O=C(CSCc1ccccc1)Nc1ccc(S(=O)(=O)Nc2ncccn2)cc1,inactive: -8.78%
14,CCOc1cc(/C=C/C(=O)OCC(=O)NCC2CCCO2)cc(Cl)c1OC (configuration not stated),inactive: -9.38%
15,O=S(=O)(c1ccc(Br)cc1)N1CCC(c2nc3ccccc3[nH]2)CC1,inactive: 3.97%
16,CN(CC(=O)Nc1ccc(Cl)c(S(=O)(=O)N(C)C)c1)Cc1ccccc1,inactive: -3.43%
17,Nc1nc(CSc2nc3ccccc3[nH]2)nc(N2CCOCC2)n1,inactive: 4.01%
18,Cc1[nH]c2ccccc2c1/C=N/NC(=S)NCc1ccccc1,inactive: 24.2%
19,CCC(Sc1ccc2nnc(CCNS(=O)(=O)c3ccc(OC)cc3)n2n1)C(=O)OC (configuration not stated),inactive: 4.02%
20,COc1ccc(CNC(=O)CCCSc2ccccc2)cc1,inactive: 30.2%
21,Cc1nc2ccc(S(=O)(=O)NCC(=O)Nc3ccc(C)c(Cl)c3)cc2s1,inactive: 23.2%
22,CN(C)CCCO/N=C(\c1ccccc1)c1ccncc1,inactive: -1.2%
23,CN(C)c1cccc(C(=O)OCC(=O)Nc2nccs2)c1,inactive: 23.8%
24,CCc1nc2ccc(C(=O)NCCOc3ccc(OC)cc3)cn2c1N(CC)Cc1cccc(Br)c1,inactive: 2.67%
25,CCc1nnc(SCC(=O)Nc2ccc(N3CCN(S(C)(=O)=O)CC3)cc2)o1,inactive: -7.85%
26,O=C(NCCc1cccc(F)c1)C1CCCN(c2nc3ccccc3s2)C1 (configuration not stated),inactive: -6.93%
